Test results as given in the antibiotic and cytotoxicity screens of Wong et al. (2023).
The list shows a part of the results.

Columns and labels:
HSkMC = human skeletal muscle cells; assay: cytotoxicity call (relative viability < 0.9); conditions: 10 µM
HepG2 = assay: cytotoxicity call (relative viability < 0.9); conditions: 10 µM
S. aureus RN4220 = assay: growth inhibition call (relative growth <= 0.2); conditions: 50 µM

In the case of C[C@@H]1CN([C@H](C)CO)C(=O)Cc2cc(NC(=O)Nc3ccccc3)ccc2O[C@H]1CN(C)S(=O)(=O)c1cn(C)cn1, the cytotoxicity call (HSkMC) was “inactive”, the cytotoxicity call (HepG2) was “inactive” and the growth inhibition call (S. aureus RN4220) was “inactive”.

In the case of Cc1nc(=O)c2c([nH]1)CCSC2, the cytotoxicity call (HSkMC) was “inactive”, the cytotoxicity call (HepG2) was “inactive” and the growth inhibition call (S. aureus RN4220) was “inactive”.

In the case of COc1ccc(NC(=O)Nc2ccc3c(c2)C(=O)N([C@H](C)CO)C[C@H](C)[C@@H](CN(C)S(=O)(=O)c2cn(C)cn2)O3)cc1, the cytotoxicity call (HSkMC) was “inactive”, the cytotoxicity call (HepG2) was “inactive” and the growth inhibition call (S. aureus RN4220) was “inactive”.

With C[C@H](CO)N1C[C@H](C)[C@@H](CN(C)Cc2ccc(C(=O)O)cc2)Oc2ccc(NC(=O)Nc3cccc4ccccc34)cc2C1=O the cytotoxicity call (HSkMC) was “inactive”, the cytotoxicity call (HepG2) was “inactive” and the growth inhibition call (S. aureus RN4220) was “inactive”.

In the case of O=C1N(Cc2ccccc2)Cc2ccccc2C[C@@]12N=C(c1ccc(OCCCO)cc1)O[C@H]2c1ccccc1, the cytotoxicity call (HSkMC) was “active”, the cytotoxicity call (HepG2) was “active” and the growth inhibition call (S. aureus RN4220) was “inactive”.

C[C@H]1CN([C@@H](C)CO)C(=O)c2cc(C#CCc3ccccc3)cnc2O[C@H]1CN(C)C(=O)Cc1cccnc1 was tested, and the cytotoxicity call (HSkMC) was “inactive”, the cytotoxicity call (HepG2) was “inactive” and the growth inhibition call (S. aureus RN4220) was “inactive”.

In the case of C[C@H](CO)N1C[C@H](C)[C@@H](CN(C)Cc2ccccc2)OCCCC[C@H](C)Oc2ccc(NC(=O)Nc3ccc4c(c3)OCO4)cc2C1=O, the cytotoxicity call (HSkMC) was “inactive”, the cytotoxicity call (HepG2) was “inactive” and the growth inhibition call (S. aureus RN4220) was “inactive”.

In the case of CN(C)CCN1CC2(CCN(C(=O)c3cnccn3)CC2)OCC1=O, the cytotoxicity call (HSkMC) was “inactive”, the cytotoxicity call (HepG2) was “inactive” and the growth inhibition call (S. aureus RN4220) was “inactive”.

In the case of Cc1ccc(S(=O)(=O)Nc2ccc3c(c2)C(=O)N([C@H](C)CO)C[C@H](C)[C@H](CN(C)Cc2ccc(Cl)c(Cl)c2)OCCCC[C@@H](C)O3)cc1, the cytotoxicity call (HSkMC) was “inactive”, the cytotoxicity call (HepG2) was “active” and the growth inhibition call (S. aureus RN4220) was “inactive”.

CCOC(=O)c1cn[nH]c1 was tested, and the cytotoxicity call (HSkMC) was “inactive”, the cytotoxicity call (HepG2) was “inactive” and the growth inhibition call (S. aureus RN4220) was “inactive”.
